# Source: the supplement of paper PMC3334620
# Over roughly 33,000 sequences, “E-score (-0.5 to 0.5)” has its median near -0.016; the highest 2% begin near 0.31. This is one part of the list.
# Target: Cst6 (UniProt P40535)
# Test: PBM E-score (8-mer binding enrichment) (E-score (-0.5 to 0.5)); higher = stronger / more preferred TF binding; most listed sequences are background and not binding sites
# Conditions: protein concentration: 200 nM; construct: GST-DNA-binding domain
# Outline: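 Universal all-10-mer Agilent arrays, fresh or stripped once, were converted to double-stranded form by primer extension. GST-tagged yeast transcription factors from PURExpress in vitro transcription/translation, full-length or DNA-binding domain only, were applied at about 100-200 nM and detected with fluorescent anti-GST. After masliner normalisation, the Universal PBM Analysis Suite scored each ungapped eight-base word together with its reverse complement by E-score.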
row,Sequence,PBM E-score
1,ATTCTGCG,-0.0773
2,AATCTGGC,-0.122
3,GATGCTCA,-0.0988
4,AACGAGCG,0.124
5,AAGTCGCG,-0.0692
6,CAACCTAA,0.129
7,GAAAGGCA,0.236
8,GGAGTGGA,-0.109
9,ACGGCGAA,0.274
10,ATCTGTAC,0.226
11,CATGAAAC,0.122
12,TACGTCCA,0.0953
13,CCCTGGTA,-0.0648
14,GTCGACGA,0.0516
15,ATACCATA,0.181
16,CGTTGAGC,-0.0169
17,ACGCCCGT,-0.0034
18,TGGACGAA,0.089
19,AAATAACT,0.249
20,CATTAAGG,0.12
21,CGACACCG,-0.222
22,AGCTATGG,-0.1
23,CTGGTGCC,-0.0236
24,AGGATCAC,-0.0106
25,CCCTCAAG,-0.23

row,Sequence,PBM E-score
1,CTGACGTA,0.489
2,CTCGGTGA,0.135
3,CAAAGAAC,0.0715
4,ACCTCAAC,0.123
5,CCATCAGA,-0.134
6,GTATAGAA,0.0359
7,AGTGATCG,0.0149
8,ATGAACGG,-0.0194
9,CTAGCGTC,-0.0842
10,ACTGTATA,0.03
11,CAGAAATG,0.127
12,GGGTGAGA,-0.25
13,CGGTTCAG,-0.219
14,GCGCAGAC,-0.0837
15,CTCCCGAC,-0.282
16,AAGGCTTC,-0.127
17,ACGCGATG,0.122
18,CCAGAAGA,-0.0494
19,CCTTTCAA,0.0356
20,GAGAGATA,0.0892
21,CCTACAAG,-0.107
22,ATGATAGA,0.00031
23,CGACTCTA,-0.123
24,CCCTGACC,-0.0453
25,CACCACAG,-0.199

row,Sequence,PBM E-score
1,ACCAAACA,0.277
2,ACAGCCCC,-0.228
3,ACTCTGCA,-0.0716
4,GCGAGCCA,-0.137
5,CAGATCGG,-0.0878
6,CGTACAGC,-0.108
7,ATTATTGG,0.142
8,GCTAAAGC,-0.00731
9,CCTAGATC,-0.263
10,ATGGACAT,0.107
11,CCTCTTTA,-0.0798
12,GTAGTGTA,-0.0469
13,ACCATTTC,0.0835
14,CCCGTAAG,0.106
15,AACCCATC,-0.115
16,GCCCTCCC,-0.246
17,AGCGATAT,0.164
18,CAAAATAC,0.146
19,CCAATTGA,0.0692
20,GTTATTCA,0.188
21,ATGCACTA,-0.0417
22,GACCCAAA,0.117
23,TAAGTGAA,0.111
24,GGCAAGAC,-0.243
25,CGCCACCC,-0.236

row,Sequence,PBM E-score
1,ATCACCTG,0.0249
2,CAGCTATG,-0.161
3,CATGGACA,-0.152
4,AACAGGCG,-0.0909
5,GCGTGGCA,-0.0602
6,ATAATGTA,0.203
7,CAGTGTTA,0.185
8,GATCGACC,-0.229
9,ACCCGACC,-0.0976
10,TAGGGCAA,-0.149
11,CAGTCATA,0.123
12,CCGCTTGA,0.0541
13,GGCCTGAA,-0.122
14,GGAAACCA,-0.221
15,CAATCAAC,0.097
16,ACTTGTCG,-0.16
17,AGTTTCTC,0.12
18,AAATGTAA,0.302
19,ACAGCGTA,0.0363
20,GAAGGACA,-0.0021
21,ACTCTACG,-0.161
22,AGTGACAG,0.15
23,GATCAGAA,-0.0976
24,CATTCAGC,-0.0359
25,AAGGGCAA,-0.0652

row,Sequence,PBM E-score
1,ATACCCCG,-0.193
2,CATGTCCA,0.0668
3,GTCGCGCA,0.0467
4,CTACCCAA,0.0109
5,CTACAAAG,-0.0328
6,GCCCTGAC,-0.0555
7,TACACTGA,0.0464
8,GAAGCGAA,0.0593
9,ATGATTAA,0.329
10,TCACACGA,0.114
11,ACAGACTG,-0.0982
12,ACATTCGT,0.076
13,AGTATCGG,-0.161
14,CTCCAATA,0.053
15,CAATTAGG,0.0223
16,ACAAAGGA,0.0643
17,ATCGGCCG,-0.102
18,CACCTATA,0.0527
19,AGACGTCG,-0.103
20,GACGGTAA,0.181
21,TAGCCGCA,-0.00413
22,GTCATGGA,0.0321
23,CGGAAACC,-0.345
24,ACAAATGC,0.164
25,AGAAAACA,0.195

row,Sequence,PBM E-score
1,AAAGGACA,-0.029
2,AACGGGGT,-0.196
3,GTAAAGAC,0.112
4,CACTGAGC,0.0764
5,GTGAGAAC,-0.113
6,AGGGATCA,-0.164
7,ATTAATTC,0.274
8,AGCAACCC,-0.166
9,CCCTCAAA,-0.0665
10,GGCTTACC,-0.247
11,AAAACACT,0.117
12,CTTCACTC,-0.181
13,CGTTAAGC,-0.0782
14,AAAACGCC,0.268
15,GAGGGCCA,-0.28
16,CTGTTGCA,0.00189
17,AGACTGGC,-0.275
18,ACCTCTTC,-0.00669
19,GCTATCTA,-0.222
20,CATCGTTA,-0.00774
21,GACCTCAC,0.221
22,TCCCAGCA,-0.138
23,CATTGTGG,-0.128
24,ATTCATTA,0.244
25,CGGTATAA,-0.0227

row,Sequence,PBM E-score
1,AACAGATT,0.0568
2,AAGCCGTG,0.215
3,CGGGTTTC,0.0719
4,AGGCCTAC,-0.0984
5,ATATCCTG,-0.089
6,CGGTTAAC,-0.0675
7,CAGCCTTC,-0.138
8,GTACTGGA,0.0483
9,AGTCCCGC,-0.241
10,ACGTTGGA,0.0372
11,GAACGTAA,0.277
12,CCCTAACA,0.127
13,AAGCTGTC,-0.141
14,GAGTCTGC,-0.276
15,ACCTGCGC,-0.101
16,AGGGACGC,-0.177
17,AGGCATCG,-0.0261
18,AGGCCCTC,-0.262
19,AACGAGAT,-0.0118
20,CCAAGTAC,-0.159
21,AGAACGTC,0.142
22,GATTCTCA,0.0989
